Laboratory results reported in the supplement of paper PMC4967469.
Lines with a small IC50 respond at low doses; fits outside the tested doses are given as limits. For AUC the same curve is integrated over the 256-fold range of doses and scaled to a fraction; the more sensitive the line, the further below 1. For some assays here: An inferred top dose was derived from the fitted curves, not read from the paper.

Assays:
Test in all cases: Viability of human cancer cell lines after 72 h of drug (GDSC screen)
Vinorelbine = compound: CCC1=C[C@@H]2CN(C1)Cc1c([nH]c3ccccc13)[C@@](C(=O)OC)(c1cc3c(cc1OC)N(C)[C@H]1[C@@](O)(C(=O)OC)[C@H](OC(C)=O)[C@]4(CC)C=CCN5CC[C@]31[C@@H]54)C2 [Vinorelbine]; settings: top dose 0.064 µM; top dose inferred
Procedure: (§1)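 Human cancer cell lines in 384-well plates, medium with 10% serum, drug for 72 h over a 256-fold dose range (nine 2-fold or five 4-fold steps up to the top dose). Adherent lines were fixed and stained with the nucleic acid dye Syto60, suspension lines read with resazurin; signal relative to control wells, capped at 0 and 100%. One two-parameter sigmoid per drug and line, fitted in a mixed model over all curves with the slope shared within a line.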

Phenformin = compound: N=C(N)NC(=N)NCCc1ccccc1 [Phenformin]; settings: top dose 4000 µM; top dose inferred
Procedure: as §1

Gefitinib = compound: COc1cc2ncnc(Nc3ccc(F)c(Cl)c3)c2cc1OCCCN1CCOCC1 [Gefitinib]; settings: top dose 0.5 µM
Procedure: as §1

XL-184 = compound: COc1cc2nccc(Oc3ccc(NC(=O)C4(C(=O)Nc5ccc(F)cc5)CC4)cc3)c2cc1OC [XL-184]; settings: top dose 5.12 µM; top dose inferred
Procedure: as §1

NU-7441 = compound: O=c1cc(N2CCOCC2)oc2c(-c3cccc4c3sc3ccccc34)cccc12 [NU-7441]; settings: top dose 2 µM; top dose inferred
Procedure: as §1

QL-XI-92 = compound: C=CC(=O)Nc1cc(NC(=O)c2ccc(C)c(NC(=O)c3ccno3)c2)cc(C(F)(F)F)c1 [QL-XI-92]; settings: top dose 10.24 µM; top dose inferred
Procedure: as §1

EHT 1864 = compound: O=c1cc(CN2CCOCC2)occ1OCCCCCSc1ccnc2cc(C(F)(F)F)ccc12 [EHT 1864]; settings: top dose 10 µM; top dose inferred
Procedure: as §1

AG-014699 = compound: CNCc1ccc(-c2[nH]c3cc(F)cc4c3c2CCNC4=O)cc1 [AG-014699]; settings: top dose 5 µM; top dose inferred
Procedure: as §1

WHI-P97 = compound: COc1cc2ncnc(Nc3cc(Br)c(O)c(Br)c3)c2cc1OC [WHI-P97]; settings: top dose 10.24 µM; top dose inferred
Procedure: as §1

| Cell Line | AUC (Vinorelbine) | IC50 (Vinorelbine) [µM] | AUC (Phenformin) | IC50 (Phenformin) [µM] | AUC (Gefitinib) | IC50 (Gefitinib) [µM] | AUC (XL-184) | IC50 (XL-184) [µM] | AUC (NU-7441) | IC50 (NU-7441) [µM] | AUC (QL-XI-92) | IC50 (QL-XI-92) [µM] | AUC (EHT 1864) | IC50 (EHT 1864) [µM] | AUC (AG-014699) | IC50 (AG-014699) [µM] | AUC (WHI-P97) | IC50 (WHI-P97) [µM] |
| --- | --- | --- | --- | --- | --- | --- | --- | --- | --- | --- | --- | --- | --- | --- | --- | --- | --- | --- |
| OVCAR-5 (ovary, adherent) | 0.806 | 0.0407 | 0.859 | > 4000 | 0.979 | > 0.5 | 0.952 | > 5.12 | 0.982 | > 2 | 0.968 | > 10.2 | 0.98 | > 10 | 0.982 | > 5 | 0.934 | > 10.2 |
| OVISE (ovary, adherent) | 0.77 | 0.0326 | 0.783 | 2310 | 0.787 | 0.298 | 0.971 | > 5.12 | 0.897 | > 2 | 0.92 | > 10.2 | 0.96 | > 10 | 0.931 | > 5 | 0.875 | > 10.2 |
| OVKATE (ovary, adherent) | 0.953 | > 0.064 | 0.889 | > 4000 | 0.947 | > 0.5 | 0.824 | > 5.12 | 0.964 | > 2 | 0.979 | > 10.2 | 0.979 | > 10 | 0.979 | > 5 | 0.965 | > 10.2 |
| OVMIU (ovary, adherent) | 0.684 | 0.015 | 0.741 | 1480 | 0.699 | 0.132 | 0.924 | > 5.12 | 0.948 | > 2 | 0.931 | > 10.2 | 0.952 | > 10 | 0.932 | > 5 | 0.764 | 4.62 |
| OVTOKO (ovary, adherent) | 0.783 | 0.0351 | 0.814 | 2960 | 0.803 | 0.331 | 0.936 | > 5.12 | 0.872 | > 2 | 0.957 | > 10.2 | 0.887 | > 10 | 0.957 | > 5 | 0.92 | > 10.2 |
| P12-ICHIKAWA (T-cell lymphoblastic leukaemia, suspension) | 0.638 | 0.00876 | 0.418 | 158 | 0.994 | > 0.5 | 0.978 | > 5.12 | 0.994 | > 2 | 0.969 | > 10.2 | 0.908 | 8.24 | 0.994 | > 5 | 0.978 | > 10.2 |
| PA-1 (ovary, adherent) | 0.457 |  | 0.576 | 384 | 0.99 | > 0.5 | 0.872 | 3.16 | 0.972 | > 2 | 0.848 | 5.24 | 0.953 | > 10 | 0.863 | 2.87 | 0.93 | > 10.2 |
| PA-TU-8902 (pancreas, adherent) | 0.784 | 0.0323 | 0.589 | 458 | 0.969 | > 0.5 | 0.919 | > 5.12 | 0.982 | > 2 | 0.926 | > 10.2 | 0.955 | > 10 | 0.936 | > 5 | 0.912 | > 10.2 |
| PANC-02-03 (pancreas, adherent) | 0.774 | 0.0304 | 0.576 | 422 | 0.903 | > 0.5 | 0.82 | 3.73 | 0.887 | > 2 | 0.972 | > 10.2 | 0.961 | > 10 | 0.958 | > 5 | 0.787 | 5.44 |
| PANC-03-27 (pancreas, adherent) | 0.503 | 0.00408 | 0.584 | 419 | 0.921 | > 0.5 | 0.839 | 3.18 | 0.954 | > 2 | 0.916 | > 10.2 | 0.982 | > 10 | 0.985 | > 5 | 0.955 | > 10.2 |
| PANC-04-03 (pancreas, adherent) | 0.919 | > 0.064 | 0.91 | > 4000 | 0.923 | > 0.5 | 0.951 | > 5.12 | 0.94 | > 2 | 0.967 | > 10.2 | 0.872 | > 10 | 0.932 | > 5 | 0.916 | > 10.2 |
| PC-14 (lung adenocarcinoma, adherent) | 0.535 | 0.00494 | 0.844 | 2420 | 0.811 | 0.23 | 0.927 | > 5.12 | 0.988 | > 2 | 0.954 | > 10.2 | 0.955 | > 10 | 0.957 | > 5 | 0.801 | 4.36 |
| PCI-4B (head and neck, adherent) | 0.504 | 0.0041 | 0.652 | 642 | 0.581 | 0.0514 | 0.946 | > 5.12 | 0.94 | > 2 | 0.912 | > 10.2 | 0.913 | > 10 | 0.909 | > 5 | 0.935 | > 10.2 |
| PCI-6A (head and neck, adherent) | 0.41 | 0.00228 | 0.782 | 1630 | 0.575 | 0.0499 | 0.861 | 4.22 | 0.926 | > 2 | 0.978 | > 10.2 | 0.965 | > 10 | 0.968 | > 5 | 0.983 | > 10.2 |
| PCI-15A (head and neck, adherent) | 0.708 | 0.0155 | 0.981 | > 4000 | 0.855 | 0.404 | 0.983 | > 5.12 | 0.881 | > 2 | 0.97 | > 10.2 | 0.94 | > 10 | 0.963 | > 5 | 0.988 | > 10.2 |
